Source: the supplement of paper PMC8728848
The list shows a part of the results.

Assays:
Assay in all cases: glycan array binding signal (z-score within array); higher = stronger binding
Conditions in all cases: glycan notation: IUPAC condensed, linker removed
Fuc(a1-2)Gal = biological target: Fuc(a1-2)Gal
Procedure, shortened: (§1)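 Glycan array data were curated from 3228 arrays in the Consortium for Functional Glycomics database and kept only where the protein sequence was available. Glycan names were converted to IUPAC-condensed notation, and columns mapping to the same glycan were averaged. The binding signal is a within-array Z-score, averaged across arrays of the same protein sequence at different concentrations or buffers and across linkers. Negative Z-scores can be read as non-binding.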

Fuc(a1-2)Gal(b1-3)GalNAc = biological target: Fuc(a1-2)Gal(b1-3)GalNAc
Procedure, shortened: as §1

[1] = biological target: Fuc(a1-2)Gal(b1-3)GalNAc(b1-3)Gal
Procedure, shortened: as §1

[2] = biological target: Fuc(a1-2)Gal(b1-3)GalNAc(b1-3)Gal(a1-4)Gal(b1-4)Glc
Procedure, shortened: as §1

[3] = biological target: Fuc(a1-2)Gal(b1-3)GalNAc(b1-4)[Neu5Ac(a2-3)]Gal(b1-4)Glc
Procedure, shortened: as §1

Fuc(a1-2)Gal(b1-3)GlcNAc = biological target: Fuc(a1-2)Gal(b1-3)GlcNAc
Procedure, shortened: as §1

[4] = biological target: Fuc(a1-2)Gal(b1-3)GlcNAc(b1-3)Gal(b1-4)Glc
Procedure, shortened: as §1

[5] = biological target: Fuc(a1-2)Gal(b1-3)[Fuc(a1-4)]GlcNAc
Procedure, shortened: as §1

Fuc(a1-2)Gal(b1-4)Glc = biological target: Fuc(a1-2)Gal(b1-4)Glc
Procedure, shortened: as §1

Fuc(a1-2)Gal(b1-4)Glc6S = biological target: Fuc(a1-2)Gal(b1-4)Glc6S
Procedure, shortened: as §1

Fuc(a1-2)Gal(b1-4)GlcNAc = biological target: Fuc(a1-2)Gal(b1-4)GlcNAc
Procedure, shortened: as §1

[6] = biological target: Fuc(a1-2)Gal(b1-4)GlcNAc(b1-3)Gal(b1-4)GlcNAc
Procedure, shortened: as §1

[7] = biological target: Fuc(a1-2)Gal(b1-4)GlcNAc(b1-3)Gal(b1-4)GlcNAc(b1-3)Gal(b1-4)GlcNAc
Procedure, shortened: as §1

[8] = biological target: Fuc(a1-2)Gal(b1-4)GlcNAc6S
Procedure, shortened: as §1

[9] = biological target: Fuc(a1-2)Gal(b1-4)[Fuc(a1-3)]GlcNAc
Procedure, shortened: as §1

[10] = biological target: Fuc(a1-2)Gal(b1-4)[Fuc(a1-3)]GlcNAc(b1-3)Gal(b1-4)[Fuc(a1-3)]GlcNAc
Procedure, shortened: as §1

[11] = biological target: Fuc(a1-2)Gal(b1-4)[Fuc(a1-3)]GlcNAc(b1-3)Gal(b1-4)[Fuc(a1-3)]GlcNAc(b1-3)Gal(b1-4)[Fuc(a1-3)]GlcNAc
Procedure, shortened: as §1

Fuc(a1-2)Gal6S(b1-4)Glc = biological target: Fuc(a1-2)Gal6S(b1-4)Glc
Procedure, shortened: as §1

[12] = biological target: Fuc(a1-2)Gal6S(b1-4)Glc6S
Procedure, shortened: as §1

[13] = biological target: Fuc(a1-2)Gal6S(b1-4)GlcNAc
Procedure, shortened: as §1

Fuc(a1-2)[Gal(a1-3)]Gal = biological target: Fuc(a1-2)[Gal(a1-3)]Gal
Procedure, shortened: as §1

[14] = biological target: Fuc(a1-2)[Gal(a1-3)]Gal(b1-3)GlcNAc
Procedure, shortened: as §1

[15] = biological target: Fuc(a1-2)[Gal(a1-3)]Gal(b1-4)Glc
Procedure, shortened: as §1

[16] = biological target: Fuc(a1-2)[Gal(a1-3)]Gal(b1-4)GlcNAc
Procedure, shortened: as §1

[17] = biological target: Fuc(a1-2)[Gal(a1-3)]Gal(b1-4)[Fuc(a1-3)]GlcNAc
Procedure, shortened: as §1

[18] = biological target: Fuc(a1-2)[Gal(a1-4)]Gal(b1-4)GlcNAc
Procedure, shortened: as §1

[19] = biological target: Fuc(a1-2)[GalNAc(a1-3)]Gal
Procedure, shortened: as §1

[20] = biological target: Fuc(a1-2)[GalNAc(a1-3)]Gal(b1-3)GlcNAc
Procedure, shortened: as §1

[21] = biological target: Fuc(a1-2)[GalNAc(a1-3)]Gal(b1-4)Glc
Procedure, shortened: as §1

[22] = biological target: Fuc(a1-2)[GalNAc(a1-3)]Gal(b1-4)GlcNAc
Procedure, shortened: as §1

[23] = biological target: Fuc(a1-2)[GalNAc(a1-3)]Gal(b1-4)[Fuc(a1-3)]GlcNAc
Procedure, shortened: as §1

[24] = biological target: Fuc(a1-2)[GalNAc(a1-4)]Gal(b1-4)GlcNAc
Procedure, shortened: as §1

[25] = biological target: Fuc(a1-2)[GalNAc(b1-3)]Gal
Procedure, shortened: as §1

Fuc(a1-3)GlcNAc = biological target: Fuc(a1-3)GlcNAc
Procedure, shortened: as §1

[26] = biological target: Fuc(a1-3)[Gal(b1-4)]Glc6S
Procedure, shortened: as §1

[27] = biological target: Fuc(a1-3)[Gal(b1-4)]GlcNAc
Procedure, shortened: as §1

[28] = biological target: Fuc(a1-3)[Gal(b1-4)]GlcNAc(b1-2)Man(a1-3)[Fuc(a1-3)[Gal(b1-4)]GlcNAc(b1-2)Man(a1-6)]Man(b1-4)GlcNAc(b1-4)GlcNAc
Procedure, shortened: as §1

[29] = biological target: Fuc(a1-3)[Gal(b1-4)]GlcNAc(b1-2)Man(a1-6)[Gal(b1-4)GlcNAc(b1-2)Man(a1-3)]Man(b1-4)GlcNAc(b1-4)GlcNAc
Procedure, shortened: as §1

[30] = biological target: Fuc(a1-3)[Gal(b1-4)]GlcNAc(b1-3)Gal(b1-3)[Fuc(a1-4)]GlcNAc
Procedure, shortened: as §1

[31] = biological target: Fuc(a1-3)[Gal(b1-4)]GlcNAc(b1-4)Gal(b1-4)[Fuc(a1-3)]GlcNAc
Procedure, shortened: as §1

[32] = biological target: Fuc(a1-3)[Gal(b1-4)]GlcNAc(b1-4)Gal(b1-4)[Fuc(a1-3)]GlcNAc(b1-4)Gal(b1-4)[Fuc(a1-3)]GlcNAc
Procedure, shortened: as §1

[33] = biological target: Fuc(a1-3)[Gal(b1-4)]GlcNAc6S
Procedure, shortened: as §1

[34] = biological target: Fuc(a1-3)[Gal3S(b1-4)]Glc6S
Procedure, shortened: as §1

[35] = biological target: Fuc(a1-3)[Gal3S(b1-4)]GlcNAc
Procedure, shortened: as §1

[36] = biological target: Fuc(a1-3)[Gal3S(b1-4)]GlcNAc6S
Procedure, shortened: as §1

B1: NESD (Drosophila melanogaster), NP_610025.1 (protein)
chain: MGHHHHHHSSGVDLGTENLYFQSMMEVFTFEKSYLERLKEAEAVLSWEGAVMPASQVRSEWKSYVELKIEPAGWQAIWKIPRVICEDLKLRYPTIVYGYVEQVIFDELKAVFVVTAVQDSDVHLPESNEVSLVELWPTVQQENAALNVDTTAECIDRLRFFYTHVWMPWDKDYDDDRDWVQQHLQARIQLVCDLSKNRLPRPLALHMRTLLAEAKYIQQRLDYLELDLSDAESDDEAVELNDSVAEPARKQSKAGSANGCLNVSSLPVTDLMCLHLRMAIIRSEFEILENPEMRRAYSELQSNSLKRLRCSSGRTRQSEDLLVERNSISHVVTLPGKLQQQLELLKLAQTLVKPESKVQLSNTLQDVLSICQSNDDILLSPGEHTIKFLEHLNDNGSLRGLTQPEAILSPAADLSLLPVVCSSDEDSTLLVIDGDYTLSELVLDCRHVRRGILLRNGTLTMRGCRLLGDGSSSTQEGIVCMPGASVELKSCLIENFAVGVSMRPKSSAELGSVQFKTCKTGLELLEKSASVNLQGSKCSFENCALGILADGFVLGEQRTEKVLVLNKFSELQRYNEDNLLGNCSFYNCKKNVRVFNESGQLLAQRSHQQLLEDELGGENKENIQLV
glycan array binding signal (z-score) (Fuc(a1-2)Gal): 0.437 | glycan array binding signal (z-score) (Fuc(a1-2)Gal(b1-3)GalNAc): -0.2 | glycan array binding signal (z-score) [1]: -0.402 | glycan array binding signal (z-score) [2]: -0.284 | glycan array binding signal (z-score) [3]: 0.056 | glycan array binding signal (z-score) (Fuc(a1-2)Gal(b1-3)GlcNAc): -0.474 | glycan array binding signal (z-score) [4]: 0.799 | glycan array binding signal (z-score) [5]: -0.397 | glycan array binding signal (z-score) (Fuc(a1-2)Gal(b1-4)Glc): -0.347 | glycan array binding signal (z-score) (Fuc(a1-2)Gal(b1-4)Glc6S): -0.269 | glycan array binding signal (z-score) (Fuc(a1-2)Gal(b1-4)GlcNAc): -0.028 | glycan array binding signal (z-score) [6]: -0.008 | glycan array binding signal (z-score) [7]: 0.571 | glycan array binding signal (z-score) [8]: 0.418 | glycan array binding signal (z-score) [9]: -0.379 | glycan array binding signal (z-score) [10]: -0.007 | glycan array binding signal (z-score) [11]: 0.007 | glycan array binding signal (z-score) (Fuc(a1-2)Gal6S(b1-4)Glc): -0.164 | glycan array binding signal (z-score) [12]: 0.415 | glycan array binding signal (z-score) [13]: 0.152 | glycan array binding signal (z-score) (Fuc(a1-2)[Gal(a1-3)]Gal): -0.145 | glycan array binding signal (z-score) [14]: -0.382 | glycan array binding signal (z-score) [15]: -0.426 | glycan array binding signal (z-score) [16]: -0.24 | glycan array binding signal (z-score) [17]: -0.398 | glycan array binding signal (z-score) [18]: -0.283 | glycan array binding signal (z-score) [19]: -0.285 | glycan array binding signal (z-score) [20]: -0.299 | glycan array binding signal (z-score) [21]: -0.185 | glycan array binding signal (z-score) [22]: -0.226 | glycan array binding signal (z-score) [23]: -0.127 | glycan array binding signal (z-score) [24]: -0.307 | glycan array binding signal (z-score) [25]: -0.255 | glycan array binding signal (z-score) (Fuc(a1-3)GlcNAc): -0.095 | glycan array binding signal (z-score) [26]: 0.613 | glycan array binding signal (z-score) [27]: -0.33 | glycan array binding signal (z-score) [28]: -0.092 | glycan array binding signal (z-score) [29]: -0.6 | glycan array binding signal (z-score) [30]: -0.24 | glycan array binding signal (z-score) [31]: -0.078 | glycan array binding signal (z-score) [32]: -0.515 | glycan array binding signal (z-score) [33]: 0.043 | glycan array binding signal (z-score) [34]: 0.672 | glycan array binding signal (z-score) [35]: 0.229 | glycan array binding signal (z-score) [36]: 1.18
